In PubChem BioAssay AID488969 (Vanderbilt High Throughput Screening Facility, 2010) one finds z-score data, which are given here for 61 compounds.

Molecules are shown by their SMILES. The full ranking holds about 110,000 compounds; the median of “z-score” is about -0.1, and the highest 2% start at about 2. This is one part of the list. Activity calls are given as the source filed them.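 The calls were made as follows: active = z-score in the third read window above 3 or below -3; inactive = the rest.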

The target of the assay is Metabotropic glutamate receptor 8 (Rattus norvegicus) (UniProt P70579). Briefly: rat mGluR8 modulators via GIRK flux, primary screen, cell-based, thallium flux, HTS (AID 488969). As to conditions: HEK293 rat mGluR8, GIRK (G protein-gated inwardly rectifying potassium channel) thallium flux, FluoZin2; at 10 µM; stronger effect = higher value; submaximal glutamate (EC20) added with thallium.
Chain of UniProt P70579 (P70579 whole entry, looked up): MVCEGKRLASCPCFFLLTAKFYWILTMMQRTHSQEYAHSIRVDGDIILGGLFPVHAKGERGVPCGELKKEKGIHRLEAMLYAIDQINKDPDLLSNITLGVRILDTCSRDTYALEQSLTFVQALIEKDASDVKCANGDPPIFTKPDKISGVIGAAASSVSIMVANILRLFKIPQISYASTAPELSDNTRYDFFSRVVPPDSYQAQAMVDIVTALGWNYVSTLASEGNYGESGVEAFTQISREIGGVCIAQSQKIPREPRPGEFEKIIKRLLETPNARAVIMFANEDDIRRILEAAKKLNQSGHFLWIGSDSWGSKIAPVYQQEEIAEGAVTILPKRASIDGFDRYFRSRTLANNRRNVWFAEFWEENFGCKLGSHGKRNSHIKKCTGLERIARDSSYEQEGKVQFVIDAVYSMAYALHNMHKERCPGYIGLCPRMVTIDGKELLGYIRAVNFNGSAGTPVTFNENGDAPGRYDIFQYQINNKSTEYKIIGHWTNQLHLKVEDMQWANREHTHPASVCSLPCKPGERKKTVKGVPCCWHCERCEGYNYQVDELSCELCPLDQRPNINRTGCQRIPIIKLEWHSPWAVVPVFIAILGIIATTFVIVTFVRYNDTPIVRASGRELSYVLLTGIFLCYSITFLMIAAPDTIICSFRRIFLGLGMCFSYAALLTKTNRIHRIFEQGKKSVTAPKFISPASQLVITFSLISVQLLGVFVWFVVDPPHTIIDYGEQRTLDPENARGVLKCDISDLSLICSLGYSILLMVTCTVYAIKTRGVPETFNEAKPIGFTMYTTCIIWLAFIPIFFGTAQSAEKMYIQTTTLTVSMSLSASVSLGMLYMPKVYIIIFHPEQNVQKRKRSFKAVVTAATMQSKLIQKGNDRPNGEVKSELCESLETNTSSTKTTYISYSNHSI
The compound `Cc1nn(CCC(=O)O)c(C)c1C` registered a z-score of -0.13.
Next, `O=C(Nc1ccc(S(=O)(=O)N2CCc3ccccc3C2)cc1)c1ccccc1`: 0.0396; `O=C(NCc1ccccc1Cl)c1cccc(NC(=O)c2ccccc2)c1`: -0.126; `N#C/C(=C\c1cc(Cl)ccc1O)C(=O)NC1CCCCC1`: -0.177.
Compound `Cc1ccc(C(=O)n2cnnc2N)cc1` gave a z-score of -0.81.
Then `COc1ccc(C(=O)CSc2nnc(-c3cccs3)n2-c2ccccc2)cc1`, with -0.159; and `CCOC(=O)/C(C#N)=C/c1cc2ccc(C)cc2nc1Cl`, with -0.211.
For the compound `O=C(Nc1ccccc1Br)C1CCN(C(=O)Cc2ccccc2)CC1`, the z-score is -0.238.
Next, `Fc1ccc(NC(=S)Nc2ccc(F)c(Cl)c2)cc1Cl`: -0.0109; `N#Cc1nc(-c2ccc(Cl)cc2)oc1NCCc1ccccn1`: 0.158.
`CN(C)/N=C/c1cc(Cl)cc([N+](=O)[O-])c1O` had a z-score of 0.0575.
Compound `COC(=O)c1ccc(CSc2nnc(-c3c[nH]c4ccccc34)n2C)o1` yielded a z-score of 0.445.
Compound `CCOC(=O)C1(S(=O)(=O)c2ccc(Cl)cc2)CCN(Cc2ccccc2)CC1` returned a z-score of 0.106.
Then `O=C(NCc1ccc(F)cc1)c1ccc(N2CCc3ccccc32)c([N+](=O)[O-])c1`, with 0.777; and `N#CC1=C(N)n2c(s/c(=C\c3cccs3)c2=O)=C(C#N)C1c1cccs1` (stereo unspecified), with -0.507.
Then `CC(C)CNS(=O)(=O)c1ccc(CCC(=O)NCc2ccco2)cc1`, with -0.0382.
Compound `CCN1CCN(C(c2cccs2)C(C)NC(=O)c2ccccc2)CC1` (stereo unspecified) gave a z-score of 0.014.
The compound `Cc1ccc(O)c(C(=O)c2cc(C#N)c(=O)n(CC3CCCO3)c2)c1` (stereo unspecified) showed a z-score of -0.26.
On to `CCOC(=O)C1CCN(C(=O)CC(C)c2ccccc2)CC1` (stereo unspecified), for which the z-score came to 0.272.
Then `COc1cc(-c2nn3c(-c4cccnc4)nnc3s2)cc(OC)c1OC`, with 0.0695; and `COc1cccc(-n2nnnc2SCC(=O)Nc2nc3c(s2)CCCC3)c1`, with 0.00301; and `CC1=C(C(N)=O)C(c2ccccc2F)NC(=O)N1` (stereo unspecified), with 0.00558.
Next, `COc1cc(/C=C2\N=C3CCCCCN3C2=O)ccc1O`: -0.0976.
Regarding `CCc1cccc(C)c1NC(=O)CSc1ncn[nH]1`, the z-score was -0.417.
On to `Cc1ccccc1C(=O)N/N=C/c1ccc(OCC(=O)N2CCCCC2)cc1`, for which the z-score was -0.178.
Then `COc1cc(NC(=O)c2ccccc2)c(OC)cc1Cl`, with -0.449; and `N#CC1=C(N)Oc2n[nH]c(-c3ccccn3)c2C1c1c(F)cccc1Cl` (stereo unspecified), with -1.02.
With `O=C1c2ccc3c4c(ccc(c24)C(=O)N1c1ccc2ccccc2c1)CC3`, the z-score is 0.233.
Then `O=C(Cc1ccc(Cl)cc1)NNC(=O)c1cnccn1`, with 0.185; and `CC1=C(C(=O)Nc2ccccn2)C(c2ccc(F)cc2)n2ncnc2N1` (stereo unspecified), with 0.147; and `COC(=O)c1cc(Br)ccc1-c1ccc(/C=N/n2nnnc2N)o1`, with -0.559.
On to `CCOC(=O)C1=C(C)C(c2ccccc2)NC(=S)N1` (stereo unspecified), for which the z-score was found to be 0.0117.
Next, `CCOc1ccc(C(=O)NC(=S)Nc2ccc(N3CCC(C)CC3)cc2)cc1[N+](=O)[O-]`: 0.955; `CCOC(=O)N1CCN(C(=O)c2ccc(OC)c(OC)c2)CC1`: 0.883.
`CCOC(=O)c1ccc(NC(=O)CN(c2ccc(C)cc2)S(=O)(=O)c2c(C)nn(C)c2C)cc1`: the z-score is 0.0534.
`O=C(c1n[nH]c(=O)c2ccccc12)N1CCOCC1`: the z-score came out at 0.339.
`Cc1cc(C)cc(NC(=O)c2cc(Cl)sc2Cl)c1` had a z-score of -0.258.
Next, `O=C(CCc1nc(-c2ccccc2)no1)NCc1cccnc1`: 0.315; `CC(NCC(O)COCc1cccs1)C1CC2CCC1C2` (stereo unspecified): -0.0756.
Then `Cc1ccsc1C(=O)c1sccc1C`, with 0.139; and `O=C1c2[nH]nc(-c3ccccc3O)c2C(c2ccc(F)cc2)N1CC1CCCO1` (stereo unspecified), with 0.79.
`CCc1nnc(NC(=O)c2c(O)c3c([nH]c2=O)CCCC3)s1` registered a z-score of -0.461.
Compound `CC(C)OCC1CC(CC(=O)NC(=S)Nc2cccc([N+](=O)[O-])c2)C(=O)O1` (stereo unspecified) came in with a z-score of -0.273.
Next, `CC1(C)CC(OC(=O)c2ccccc2)CC(C)(C)N1`: 0.604.
Regarding `Cc1cccc(NC(=O)CSc2nc3ccc(NC(=O)CSc4nnnn4-c4ccccc4)cc3s2)c1C`, the z-score amounted to 0.181.
Next, `Clc1ccccc1Oc1cnc2ccccc2n1`: -0.184; `Cc1cc(-c2ccccc2C(=O)NCc2ccccc2)on1`: -0.0922.
`O=C(N/N=C/CCc1ccccc1)c1ccccc1`: the z-score is -0.78.
Next, `Cc1ccc(S(=O)(=O)N2CCCCC2C(=O)N2CCN(C)CC2)cc1` (stereo unspecified): -0.0911.
Regarding `CCOc1ccc(N2C(=O)CS/C2=N/NC(=O)COc2ccc3ccccc3c2)cc1`, the z-score is 0.0846.
Compound `COC(=O)c1cc(NC(=O)CC2SCCNC2=O)cc(C(=O)OC)c1` (stereo unspecified) showed a z-score of -0.963.
Then `O=C(CSc1nnnn1-c1ccc2c(c1)CCC2)NCc1cccs1`, with -0.44; and `CCNC(=O)CC1C(=O)N(c2ccccc2)C(=O)N1Cc1ccc(OC)cc1` (stereo unspecified), with 0.245; and `Cc1nccn1-c1cc(C(C)(C)C)nc2c(-c3ccccc3)cnn12`, with -0.158.
Then `CCOC(=O)c1cnn(-c2nc(SC)nc3sc4c(c23)CCC4)c1N`, with 0.312.
On to `CC(=O)C1=C(C)NC(SCc2cccc3ccccc23)=C(C#N)C1c1ccco1` (stereo unspecified), for which the z-score came out at 0.063.
Take `CCc1ccc(-c2nc(CN3CCC(C(=O)N4CCN(c5ccccc5)CC4)CC3)c(C)o2)cc1`: the z-score came out at 2.2.
Next, `CCCCNC(=O)Cc1ccc(C)cc1`: 0.122.
With `Cc1ccc(Oc2ncc(CN3CCOCC3)s2)cc1`, the z-score was -0.0551.
Then `C=CCN(CC=C)C(=S)NC(=O)/C=C/c1ccc(C)cc1`, with active: 4.57.
Then `Cc1nn(CCC(=O)NNC(=S)Nc2ccc(Cl)cc2)c(C)c1[N+](=O)[O-]`, with 0.148.
